Experiment [1] concerns the target T1, GLP-1 receptor (Mus musculus, UniProt O35659).
T1 construct: Male GLP-1R−/− and age matched wild type mice; from tissue; host or cells: whole animal (wild type mice; GLP-1R-/- mice as receptor-free control)
T1 sequence (O35659 22-463): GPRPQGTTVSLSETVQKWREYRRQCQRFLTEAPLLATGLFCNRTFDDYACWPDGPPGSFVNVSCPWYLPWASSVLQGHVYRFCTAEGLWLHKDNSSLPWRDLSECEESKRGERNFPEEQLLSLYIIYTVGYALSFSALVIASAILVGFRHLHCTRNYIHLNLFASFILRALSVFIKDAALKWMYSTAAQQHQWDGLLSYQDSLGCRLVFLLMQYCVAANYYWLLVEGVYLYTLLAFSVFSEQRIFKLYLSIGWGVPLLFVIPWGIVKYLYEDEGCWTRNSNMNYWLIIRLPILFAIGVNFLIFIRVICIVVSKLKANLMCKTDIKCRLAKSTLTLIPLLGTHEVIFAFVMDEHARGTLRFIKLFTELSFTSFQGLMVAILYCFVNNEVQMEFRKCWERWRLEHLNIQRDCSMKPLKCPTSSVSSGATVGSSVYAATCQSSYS
As to the kind of experiment: Glucose tolerance test (ipGTT) in GLP-1R−/− and wild type mice. Format: in vivo. Conditions: wild type mice, single iv, GLP-1 MMB 1 mg/kg, exendin-4 0.07 mg/kg. The procedure:
(§1) Materials/Methods: Animals: Male GLP-1R−/− and age matched wild type mice were randomized into three treatment groups (n=5) based on body weight and fasting blood glucose.
Glucose tolerance test (ipGTT): Mice were fasted overnight and dosed intravenously as discussed above. Fasting glucose was measured via tail snips using a hand-held glucometer (LifeScan). At t=0 min, mice were dosed i.p. with D-glucose (1.0 mg/g, Sigma) and blood glucose was measured after 15, 30, 60, 90 and 120 min using tail vein blood

The subject of experiment [2] is GLP-1 receptor. As to the kind of experiment: Food intake in GLP-1R−/− and wild type mice. It is filed as in vivo. Conditions: GLP-1R−/− mice, single iv, GLP-1 MMB 1 mg/kg, exendin-4 0.07 mg/kg.
Text: as §1

Experiment [3] deals with T1, GLP-1 receptor. As to the kind of experiment: Food intake in GLP-1R−/− and wild type mice. It is filed as in vivo. As to conditions: wild type mice, single iv, GLP-1 MMB 1 mg/kg, exendin-4 0.07 mg/kg.
Text: as §1

Experiment [4] relates to diet-induced obese (DIO) mice. As to the kind of experiment: Correlation of ipGTT activity with plasma levels in DIO mice. Format: in vivo. Conditions: single 1 mg/kg iv, up to 6 days post injection. The procedure:
Correlation of the Pharmacodynamic Activity of a GLP-1 MMB with its Pharmacokinetic Profile in DIO Mice. The purpose of this study was to correlate the effect of a GLP-1 MMB in regulating glucose tolerance with its pharmacokinetic profile in diet-induced obese (DIO) mice. Animals were dosed (iv) with a GLP-1 MMB of SEQ ID NO 4 (1 mg/kg) and glucose tolerance tests were performed at various time post dosing. Simultaneously, blood samples were collected to assess GLP-1 MMB of SEQ ID NO 4 levels.
Materials/Methods. Animals/Treatments: C57B1/6J mice were started at 4 weeks of age on a diet containing 60.9% fat (Purina TestDiets 58126). […]
Glucose tolerance test (ipGTT): Mice were fasted overnight (16 hr) before the test. In the morning a fasting glucose was measured via tail snips using a hand-held glucometer (LifeScan). […] Blood glucose was measured after 15, 30, 60, 90 and 120 min using tail vein blood.
GLP-1 MMB plasma levels: Blood samples were collected after the ipGTT via cardiac puncture. […] The concentration of intact GLP-1 MMB of SEQ ID NO 4 was measured using a mesoscale discovery (MSD) technology. […] A ruthenium labeled monoclonal antibody recognizing the linker region of the mimetibody (CNTO712) was added for detection, and the luminescence responses were determined using the MSD sector imager 6000 reader. […]

Another experiment concerns INS-1E cells. As to the kind of experiment: Insulin secretion assay in INS-1E cells. Conditions: 25 nM, 6.5 mM glucose, two hours. Format: cell-based, rat. The procedure:
In vitro Activity of GLP-1 MMB as Measured by Insulin Secretion. A further insulin secretion assay was developed to measure functional in vitro activity of the GLP-1 MMB of SEQ ID NO 4.,
Cell culture: INS-1E cells were cultured in RPMI 1640/10% FBS/1% L-glutamine/1% Sodium Pyruvate/1% Non-essential Amino Acids/50 μM β-Mercaptoethanol and maintained at 37° C. in a humidified incubator with 5% CO2. Data was analyzed in GraphPad PRISM, version 4.03.
Insulin Secretion Assay: INS-1E cells were plated at 100,000 cells/well in 96-well plates (Costar 3610) and allowed to recover 4 days in normal growth media. The cells were washed twice and 0.1 ml of KRBH buffer/3 mM glucose was added. The cells were allowed to equilibrate in this buffer for 2 hours. The media was removed and 0.12 ml of GLP-1 MMB of SEQ ID NO 4 in KRBH with 6.5 mM glucose was added per well. Twenty microliters of supernatant was removed per well for the T=0 time point. The cells were incubated for two hours at 37° C. at 5% CO2 and twenty microliters of supernatant were removed per well. Supernatants were frozen at −20° C. until the insulin ELISA was performed. Insulin concentrations were determined using a the Ultra Sensitive Rat Insulin ELISA kit (Crystal Chem).

In experiment [5] the test system is GLP-1 receptor. As to the kind of experiment: Gastric emptying in GLP-1R−/− and wild type mice. Format: in vivo. Conditions: GLP-1R−/− mice, single iv, GLP-1 MMB 1 mg/kg, exendin-4 0.07 mg/kg. On the procedure: as §1
(§2) Gastric Emptying: Mice were fasted overnight. The next morning mice were re-fed for 1 h, food intake was recorded and the mice were deprived of food for the rest of the study. Mice were dosed intravenously as discussed above. Two hours post-dosing mice were euthenized.
(§3) The stomach was exposed by laparotomy, ligated at both the pylorus and cardia and removed.
(§4) The stomach content wet weight was measured. Equation 1 was used to calculate the percent of food remaining in the stomach. (Stomach Content Wet Weight (g)/Food Intake (g))*100 Equation (1)

Experiment [6] concerns the target T1, GLP-1 receptor. As to the kind of experiment: Gastric emptying in GLP-1R−/− and wild type mice. Format: in vivo. Conditions: wild type mice, single iv, GLP-1 MMB 1 mg/kg, exendin-4 0.07 mg/kg. On the procedure: as §1, §2, §3, §4

One molecule from patent publication US8071103B2, “Pharmaceutical composition comprising a human GLP-1 mimetibody” (Centocor, Inc., priority 2006, dated 2011) can be followed below.

“Also recorded” adds a separate entry of the source.

B1: GLP-1 MMB of SEQ ID NO 4: GLP-1 mimetibody having the sequence of SEQ ID NO 4 (protein)
chain: HSEGTFTSDVSSYLEGQAAKEFIEWLVKGRGGGSGGGSGTLVTNSS[human IgG4 Fc with S228P F234A L235A (EU numbers) omitted]
modifications: fusion protein of GLP-1 variant-linker 3-J region-Hinge H3-Fc
Consider B1, for which the “AUC of ipGTT” value with GLP-1 receptor [1] is “improved glucose tolerance; also recorded: statistically significant reduction”. Moreover, the food intake result in the experiment with GLP-1 receptor [2] is “no effect”. Moreover, the “24 hour cumulative food intake compared to CNTO1996” value in the experiment with GLP-1 receptor [3] was “reduced food intake; also recorded: statistically significant reduction”. In addition, the “AUC of ipGTT relative to the negative control” value in experiment [4] is recorded as “statistically significant reduction”. In addition, the “amount of insulin secreted into the supernatant” value in the experiment on INS-1E cells is “significantly increased”. For the same molecule, the gastric emptying entry in the experiment with GLP-1 receptor [5] is listed as “no effect”. Also, the “stomach content (percent of food remaining) 2 h after dosing compared to CNTO1996” value with GLP-1 receptor [6] is given as “inhibited gastric emptying; also recorded: statistically significant increase”.
